Results: the supplement of paper PMC8728848
This is one part of the list.

Assays:
Experiment in all cases: glycan array binding signal (z-score within array); higher = stronger binding
Conditions in all cases: glycan notation: IUPAC condensed, linker removed
[1] = biological target: Gal(b1-3)GlcNAc(b1-3)Gal(b1-4)GlcNAc(b1-2)[Gal(b1-3)GlcNAc(b1-3)Gal(b1-4)GlcNAc(b1-6)]Man(a1-6)[Gal(b1-3)GlcNAc(b1-3)Gal(b1-4)GlcNAc(b1-2)Man(a1-3)]Man(b1-4)GlcNAc(b1-4)[Fuc(a1-6)]GlcNAc
How it was run: (§1)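 From the Consortium for Functional Glycomics database, 3228 arrays were curated, keeping only those whose protein sequence was available. Binding is given as a within-array Z-score averaged across arrays sharing a protein sequence and across linkers. Negative Z-scores can be read as non-binding.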

[2] = biological target: Gal(b1-3)GlcNAc(b1-3)Gal(b1-4)GlcNAc(b1-3)Gal(b1-4)GlcNAc(b1-2)[Gal(b1-3)GlcNAc(b1-3)Gal(b1-4)GlcNAc(b1-3)Gal(b1-4)GlcNAc(b1-6)]Man(a1-6)[Gal(b1-3)GlcNAc(b1-3)Gal(b1-4)GlcNAc(b1-3)Gal(b1-4)GlcNAc(b1-2)Man(a1-3)]Man(b1-4)GlcNAc(b1-4)[Fuc(a1-6)]GlcNAc
How it was run: as §1

[3] = biological target: Gal(b1-3)GlcNAc(b1-3)Gal(b1-4)GlcNAc(b1-6)[Gal(b1-3)GlcNAc(b1-3)]Gal(b1-4)Glc
How it was run: as §1

[4] = biological target: Gal(b1-3)GlcNAc(b1-3)Gal(b1-4)[Fuc(a1-3)]GlcNAc
How it was run: as §1

[5] = biological target: Gal(b1-3)GlcNAc(b1-3)Gal(b1-4)[Fuc(a1-3)]GlcNAc(b1-6)[Gal(b1-3)GlcNAc(b1-3)]Gal(b1-4)Glc
How it was run: as §1

[6] = biological target: Gal(b1-3)GlcNAc(b1-3)GalNAc
How it was run: as §1

[7] = biological target: Gal(b1-3)GlcNAc(b1-6)Gal(b1-4)GlcNAc
How it was run: as §1

[8] = biological target: Gal(b1-3)GlcNAc(b1-6)GalNAc
How it was run: as §1

[9] = biological target: Gal(b1-3)GlcNAc(b1-6)[Gal(b1-3)]GalNAc
How it was run: as §1

Gal(b1-3)GlcNAc6S = biological target: Gal(b1-3)GlcNAc6S
How it was run: as §1

[10] = biological target: Gal(b1-3)[Fuc(a1-4)]GlcNAc
How it was run: as §1

[11] = biological target: Gal(b1-3)[Fuc(a1-4)]GlcNAc(b1-2)Man
How it was run: as §1

[12] = biological target: Gal(b1-3)[Fuc(a1-4)]GlcNAc(b1-2)Man(a1-3)[Gal(b1-3)[Fuc(a1-4)]GlcNAc(b1-2)Man(a1-6)]Man(b1-4)GlcNAc(b1-4)[Fuc(a1-6)]GlcNAc
How it was run: as §1

[13] = biological target: Gal(b1-3)[Fuc(a1-4)]GlcNAc(b1-3)Gal(b1-3)[Fuc(a1-4)]GlcNAc
How it was run: as §1

[14] = biological target: Gal(b1-3)[Fuc(a1-4)]GlcNAc(b1-3)Gal(b1-4)[Fuc(a1-3)]GlcNAc
How it was run: as §1

[15] = biological target: Gal(b1-3)[Fuc(a1-4)]GlcNAc(b1-6)GalNAc
How it was run: as §1

[16] = biological target: Gal(b1-3)[GlcNAc(b1-6)]GalNAc
How it was run: as §1

[17] = biological target: Gal(b1-3)[Neu5Ac(a2-6)]GalNAc
How it was run: as §1

[18] = biological target: Gal(b1-3)[Neu5Ac(a2-6)]GlcNAc(b1-4)Gal(b1-4)Glc
How it was run: as §1

[19] = biological target: Gal(b1-3)[Neu5Ac(b2-6)]GalNAc
How it was run: as §1

Gal(b1-4)Gal = biological target: Gal(b1-4)Gal
How it was run: as §1

[20] = biological target: Gal(b1-4)GalNAc(a1-3)[Fuc(a1-2)]Gal(b1-4)GlcNAc
How it was run: as §1

[21] = biological target: Gal(b1-4)GalNAc(b1-3)[Fuc(a1-2)]Gal(b1-4)GlcNAc
How it was run: as §1

Gal(b1-4)Glc = biological target: Gal(b1-4)Glc
How it was run: as §1

Gal(b1-4)Glc6S = biological target: Gal(b1-4)Glc6S
How it was run: as §1

Gal(b1-4)GlcNAc = biological target: Gal(b1-4)GlcNAc
How it was run: as §1

[22] = biological target: Gal(b1-4)GlcNAc(a1-6)Gal(b1-4)GlcNAc
How it was run: as §1

Gal(b1-4)GlcNAc(b1-2)Man = biological target: Gal(b1-4)GlcNAc(b1-2)Man
How it was run: as §1

[23] = biological target: Gal(b1-4)GlcNAc(b1-2)Man(a1-3)Man(b1-4)GlcNAc(b1-4)GlcNAc
How it was run: as §1

[24] = biological target: Gal(b1-4)GlcNAc(b1-2)Man(a1-3)[Gal(b1-4)GlcNAc(b1-2)Man(a1-6)]Man(b1-4)GlcNAc(b1-4)GlcNAc
How it was run: as §1

[25] = biological target: Gal(b1-4)GlcNAc(b1-2)Man(a1-3)[Gal(b1-4)GlcNAc(b1-2)Man(a1-6)]Man(b1-4)GlcNAc(b1-4)[Fuc(a1-6)]GlcNAc
How it was run: as §1

[26] = biological target: Gal(b1-4)GlcNAc(b1-2)Man(a1-3)[Gal(b1-4)GlcNAc(b1-2)Man(a1-6)][Gal(b1-4)GlcNAc(b1-4)]Man(b1-4)GlcNAc(b1-4)[Fuc(a1-6)]GlcNAc
How it was run: as §1

[27] = biological target: Gal(b1-4)GlcNAc(b1-2)Man(a1-3)[Gal(b1-4)GlcNAc(b1-2)Man(a1-6)][GlcNAc(b1-4)]Man(b1-4)GlcNAc(b1-4)[Fuc(a1-6)]GlcNAc
How it was run: as §1

[28] = biological target: Gal(b1-4)GlcNAc(b1-2)Man(a1-3)[GlcNAc(b1-2)Man(a1-6)]Man(b1-4)GlcNAc(b1-4)GlcNAc
How it was run: as §1

[29] = biological target: Gal(b1-4)GlcNAc(b1-2)Man(a1-3)[GlcNAc(b1-4)][Gal(b1-4)GlcNAc(b1-2)Man(a1-6)]Man(b1-4)GlcNAc(b1-4)GlcNAc
How it was run: as §1

[30] = biological target: Gal(b1-4)GlcNAc(b1-2)Man(a1-3)[Man(a1-6)]Man(b1-4)GlcNAc(b1-4)GlcNAc
How it was run: as §1

[31] = biological target: Gal(b1-4)GlcNAc(b1-2)Man(a1-6)Man(b1-4)GlcNAc(b1-4)GlcNAc
How it was run: as §1

[32] = biological target: Gal(b1-4)GlcNAc(b1-2)Man(a1-6)[GlcNAc(b1-2)Man(a1-3)]Man(b1-4)GlcNAc(b1-4)GlcNAc
How it was run: as §1

B1: SP16665A-bot-344-23-344 (Bacteroides ovatus) (protein)
chain: SDNEFPDFDYQTVYFANQYGLRTIELGESEFVDNTLDNQHKMVIKAAWGGGYTNRNNVVINFKVDESLCDNLYFKDTDQPLVPMPASYYTLASDRIAIPKGQIMAGVEVQLTDDFFADEKSISENYVIPLLMTNVQGADSILQGKPVVENPVLTNAGDWSILPQNFVLYAVKYVNPWHGEYLRRGIDHATVAGTSKDIIRHEQFVENDEVVNISTKSMKDNLLTLKTKDESGKDISYTVRLSFAEDGSCTVHSGSQNVVVSGSGKFVSKGEKNSLGGKDRNAIYLDYTVNLTDNNIQLATKDTLVLRTRNVYGGKSLEVVRK
- glycan array binding signal (z-score) [1]: 0.558
- glycan array binding signal (z-score) [2]: 0.752
- glycan array binding signal (z-score) [3]: 0.016
- glycan array binding signal (z-score) [4]: -0.575
- glycan array binding signal (z-score) [5]: 0.183
- glycan array binding signal (z-score) [6]: 0.029
- glycan array binding signal (z-score) [7]: -0.558
- glycan array binding signal (z-score) [8]: 0.162
- glycan array binding signal (z-score) [9]: -0.274
- glycan array binding signal (z-score) (Gal(b1-3)GlcNAc6S): -0.287
- glycan array binding signal (z-score) [10]: -0.203
- glycan array binding signal (z-score) [11]: 0.303
- glycan array binding signal (z-score) [12]: 0.611
- glycan array binding signal (z-score) [13]: -0.08
- glycan array binding signal (z-score) [14]: -0.228
- glycan array binding signal (z-score) [15]: 0.189
- glycan array binding signal (z-score) [16]: -0.316
- glycan array binding signal (z-score) [17]: -0.201
- glycan array binding signal (z-score) [18]: 0.766
- glycan array binding signal (z-score) [19]: -0.06
- glycan array binding signal (z-score) (Gal(b1-4)Gal): -0.339
- glycan array binding signal (z-score) [20]: -0.475
- glycan array binding signal (z-score) [21]: -0.312
- glycan array binding signal (z-score) (Gal(b1-4)Glc): -0.451
- glycan array binding signal (z-score) (Gal(b1-4)Glc6S): 0.631
- glycan array binding signal (z-score) (Gal(b1-4)GlcNAc): -0.185
- glycan array binding signal (z-score) [22]: -0.497
- glycan array binding signal (z-score) (Gal(b1-4)GlcNAc(b1-2)Man): 1.02
- glycan array binding signal (z-score) [23]: -0.191
- glycan array binding signal (z-score) [24]: -0.394
- glycan array binding signal (z-score) [25]: -0.014
- glycan array binding signal (z-score) [26]: -0.393
- glycan array binding signal (z-score) [27]: -0.323
- glycan array binding signal (z-score) [28]: -0.46
- glycan array binding signal (z-score) [29]: -0.183
- glycan array binding signal (z-score) [30]: -0.153
- glycan array binding signal (z-score) [31]: -0.545
- glycan array binding signal (z-score) [32]: -0.093
